Laboratory results as given in publication PMC6919601, “Identification of Plasmodium dipeptidyl aminopeptidase allosteric inhibitors by high throughput screening” (PLoS ONE, 2019).
“And” between values parts separate entries of the source, which are not always exact repeats. Identical values can stand only once. Out of some 110,000 compounds screened, about 230 (0.21%) showed an effect of 50% or more. Some of the results follow.

Molecular target: DPAP1 (Plasmodium falciparum, UniProt Q8IIJ9)
Test: primary screen, percent inhibition; read by cleavage of a fluorogenic dipeptide substrate; higher = more effect of the substance
Parameters: species or system P. falciparum D10 trophozoite lysates; single well
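Note: 30 min substrate incubation versus DMSO and 10 µM JCP410 controls.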

Sequence of DPAP1 (Q8IIJ9 whole entry, looked up): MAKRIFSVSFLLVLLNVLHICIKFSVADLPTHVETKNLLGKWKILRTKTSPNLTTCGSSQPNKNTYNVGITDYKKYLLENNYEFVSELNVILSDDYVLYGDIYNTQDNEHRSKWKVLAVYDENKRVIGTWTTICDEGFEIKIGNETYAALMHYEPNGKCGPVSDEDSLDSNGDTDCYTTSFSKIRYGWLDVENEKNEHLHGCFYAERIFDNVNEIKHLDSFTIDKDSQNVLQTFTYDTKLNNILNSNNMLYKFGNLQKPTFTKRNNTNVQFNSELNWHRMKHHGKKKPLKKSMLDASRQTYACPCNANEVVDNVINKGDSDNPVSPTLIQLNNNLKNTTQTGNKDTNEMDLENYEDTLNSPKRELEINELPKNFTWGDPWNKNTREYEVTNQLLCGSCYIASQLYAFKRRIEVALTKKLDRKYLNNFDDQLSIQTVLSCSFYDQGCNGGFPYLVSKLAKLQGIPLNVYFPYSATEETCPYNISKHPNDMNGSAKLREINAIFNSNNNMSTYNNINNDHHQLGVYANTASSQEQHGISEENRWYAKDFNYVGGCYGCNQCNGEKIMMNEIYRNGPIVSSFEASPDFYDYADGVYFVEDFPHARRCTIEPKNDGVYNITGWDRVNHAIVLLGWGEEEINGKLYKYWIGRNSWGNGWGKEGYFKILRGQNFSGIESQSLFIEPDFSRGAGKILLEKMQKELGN

Compared with `Cc1cc(SCC(C)C)n2ncnc2n1`, `Cc1cc(-c2ccccc2)[n+]2oc(C)cc2n1` is higher in “% Inhibition @ 10 uM” value: -0.446% for the first, 3.61% for the second.

Compared with `CC1(C)CC(=O)C2=C(C1)N(CC1CCCO1)C(=O)C2(NC(=O)c1cccs1)C(F)(F)F` (centres unmarked), `CCOC(=O)c1c(C)nc2c(c1-c1ccc(Cl)cc1)C(=O)CC(C)(C)C2` is lower in “% Inhibition @ 10 uM” value: -1.28% for the first, -1.77% for the second.

First: O=[N+]([O-])c1ccc(N2CCN(Cc3ccc(C(F)(F)F)cc3)CC2)cc1
Second: COc1ccc(-c2cc(C(F)F)n3ncc(C(=O)N4CCN(Cc5ccccc5)CC4)c3n2)cc1
The “% Inhibition @ 10 uM” value of the first is lower: -0.294% for the first, 0.778% for the second.

Compared with `Cc1ccc(NC(=O)C(C)Oc2ccccc2F)c(C)c1` (centres unmarked), `CCc1ccc(NC(=O)C(C)Oc2cccc(C)c2)cc1` (centres unmarked) is lower in “% Inhibition @ 10 uM” value: 0.291% for the first, -1.24% for the second.

Going from `CCc1ccc(-n2nc(C)c3c(C)cc(=O)n(CC(=O)N(CC)CC)c32)cc1` to `Cc1cc(=O)n(Cc2ccncc2)c2c1c(C)nn2-c1cccc(F)c1`, the “% Inhibition @ 10 uM” value falls from 4.32% to 1.27%.

Going from `O=C(NCCN1CCN(Cc2ccccc2)CC1)c1cc2c(s1)-c1ccccc1OC2` to `Fc1ccc(CN2CCN(C/C=C/c3ccccc3)CC2)c(F)c1`, the “% Inhibition @ 10 uM” value rises from -4.85% to -1.86%.

Compared with `Cc1ccc(-c2ccccc2)n1-c1ccc(O)c(C(=O)O)c1`, `O=C(c1ccccc1Cl)N1N=C(c2ccccc2)CC1c1ccco1` (centres unmarked) is lower in “% Inhibition @ 10 uM” value: 0.408% for the first, -9.82% for the second.

Compared with `COc1cccc(Oc2c(C)oc3cc(O)ccc3c2=O)c1`, `CC(=O)c1c(C)n(-c2ccc(C)cc2C)c2ccc(O)cc12` is higher in “% Inhibition @ 10 uM” value: -2.91% for the first, 3.06% for the second.

First: CN(C)CCCSC(c1ccccc1)c1ccccc1
Second: CC(NC(=O)Cn1ncn2cccc2c1=O)c1ccccc1 (centres unmarked)
The “% Inhibition @ 10 uM” value of the first is higher: -4.48% for the first, -7.17% for the second.

First: CC(C)C(=O)N1c2ccccc2N=C2CC(C)(C)CC(O)=C2C1c1ccc(N(C)C)cc1 (centres unmarked)
Second: CC1=C(C#N)C(c2ccc(N(C)C)cc2)C2=C(O)CC(C)(C)CC2=N1 (centres unmarked)
The “% Inhibition @ 10 uM” value of the first is lower: -3.44% for the first, 0.51% for the second.

Compared with `O=C1C2C3C=CC(CO)(O3)C2C(=O)N1c1ccc(Cl)c(Cl)c1` (centres unmarked), `CC(C)(C)OC(=O)NCC12C=CC(O1)C1C(=O)N(Cc3ccccc3)C(=O)C12` (centres unmarked) is higher in “% Inhibition @ 10 uM” value: -4.72% for the first, 1.7% for the second.

Going from `CCOC(=O)N1CCC(NC(=O)C2CCCN(c3nn4c(=O)cc(C)nc4s3)C2)CC1` (centres unmarked) to `CCC(C)NC(=O)C1CCN(c2nnc(-n3c(C)ccc3C)s2)CC1` (centres unmarked), the “% Inhibition @ 10 uM” value rises from -0.281% to 2.76%.

Compared with `CN1CCC2(CC1)N=C(c1ccccc1)C(c1ccccc1)=N2`, `CC1CCN(c2nc3ccc(C(=O)c4ccccc4)cc3n3cnnc23)CC1` is higher in “% Inhibition @ 10 uM” value: -3.75% for the first, 1.4% for the second.

Compared with `COc1ccccc1C1=NC(C(F)(F)F)(C(F)(F)F)N=C(N2CCOCC2)O1`, `CCC(C)(C)c1ccc(OCC(O)CN2CCOCC2)c(C(C)(C)CC)c1` (centres unmarked) is lower in “% Inhibition @ 10 uM” value: 3.36% for the first, 3.16% for the second.

First: O=C(O)Cn1cc(C(=O)C2CCCCC2)c2ccccc21
Second: Cn1c2ccccc2c2c(C(=O)NCCN3CCOCC3)cn(C3CCCC3)c(=O)c21
The “% Inhibition @ 10 uM” value of the first is higher: -3.13% for the first, -3.39% for the second.

`Cc1sc(NC(=O)COc2ccc(Cl)cc2)c(C(N)=O)c1C` and `CCOc1ccc(NC(=O)c2c(NC(=O)CC)sc3c2CCC(C)C3)cc1` (centres unmarked) are the same in “% Inhibition @ 10 uM” value: 2.13% for the first, 2.13% for the second.

Compared with `CC(C)(C)NC(=O)Cn1ncc2c3ccccc3n(Cc3ccccc3)c2c1=O`, `COCCNC(=O)Cn1ncc2c(C)n(Cc3ccccc3F)c(C)c2c1=O` is higher in “% Inhibition @ 10 uM” value: -1.58% for the first, 4.4% for the second.

Compared with `COc1cccc(C2C3=C(O)CC(c4cccs4)CC3=NC(C)=C2C(=O)OCC(C)C)c1` (centres unmarked), `CCOC(=O)C1=C(C)N=c2s/c(=C\c3ccc(C)cc3)c(=O)n2C1c1ccc(OC)c(OC)c1` (centres unmarked) is higher in “% Inhibition @ 10 uM” value: 3.87% for the first, 7.62% for the second.

Compared with `Cc1nc2c(c(C)c1CCC(=O)NCCc1ccc(Cl)cc1)c(=O)n(C)c(=O)n2C`, `COc1cc(OC)cc(-c2cc3nc(C)c(CCC(=O)NCc4ccc5c(c4)OCO5)c(C)n3n2)c1` is lower in “% Inhibition @ 10 uM” value: 3.75% for the first, 1.26% for the second.

Compared with `Clc1ccc2[nH]c(N3CCCCC3)nc2c1`, `O=C(O)c1ccc2nc(N3CCCCC3)sc2c1` is higher in “% Inhibition @ 10 uM” value: 0.345% for the first, 17.8% for the second.

First: Cc1ccsc1C1CC(=O)NC(SCC(N)=O)=C1C#N (centres unmarked)
Second: C=CCSC1=C(C#N)C(c2ccc(OC)c(OC)c2)CC(=O)N1 (centres unmarked)
The “% Inhibition @ 10 uM” value of the first is higher: 0.121% for the first, -5.34% for the second.

Compared with `O=C(Cc1ccccc1Cl)N1CCC(c2nc(O)c3nnn(Cc4ccccc4)c3n2)CC1`, `Cc1nc2c(C(=O)N3CCCCC3)cnn2c(O)c1Cc1ccccc1F` is lower in “% Inhibition @ 10 uM” value: 0.558% for the first, -3.36% for the second.

Compared with `CCCCC1CCC(c2nc(-c3ccc(Br)cc3)no2)CC1` (centres unmarked), `Nc1nc(CS(=O)(=O)c2ccc(Br)cc2)cs1` is lower in “% Inhibition @ 10 uM” value: 6.06% for the first, 2.6% for the second.

First: Cc1sc(NC(=O)C2CCCCC2C(=O)O)c(C(N)=O)c1-c1ccc(C(C)(C)C)cc1 (centres unmarked)
Second: Cc1ccc2nc(NC(=O)C3CC4CCC3C4)sc2c1 (centres unmarked)
The “% Inhibition @ 10 uM” value of the first is higher: 17% for the first, -2.22% for the second.

First: COc1ccc(CC(=O)N2CCc3ccccc3C2)cc1
Second: CN1CCN(C(=O)CN(c2cccc(Cl)c2)S(=O)(=O)c2ccc(Cl)cc2)CC1
The “% Inhibition @ 10 uM” value of the first is lower: -1.62% for the first, 3.21% for the second.

Going from `COCCCNC(=O)C1CC(=O)N(CCc2ccccc2)C1` (centres unmarked) to `O=C(CCN1C(=O)c2ccccc2Sc2ncccc21)NCCCc1ccccc1`, the “% Inhibition @ 10 uM” value falls from 3.04% to -8.19%.

Compared with `Cc1ccc(-n2nc(C)c(/C=N/c3ccc4[nH]c(C)nc4c3)c2O)cc1`, `O=c1c2cnn(-c3ccc(F)cc3)c2ncn1Cc1ccc(Cl)cc1Cl` is lower in “% Inhibition @ 10 uM” value: 2.69% for the first, -1.75% for the second.

Going from `C=CCNc1oc(COc2cccc(Cl)c2)nc1C#N` to `C=CCNC(=O)/C(=C/c1ccccc1)NC(=O)c1ccc(Br)o1`, the “% Inhibition @ 10 uM” value rises from 2.46% to 8.23%.

Going from `COc1ccc(/C=C(\C#N)C(=O)Nc2nccs2)cc1` to `CC(=O)c1cccc(NC(=O)c2ccncc2)c1`, the “% Inhibition @ 10 uM” value falls from 1.37% to -4.16%.

Compared with `COc1ccc(CNc2nc(-c3ccco3)nn2S(=O)(=O)c2ccc(Cl)cc2)cc1`, `COc1ccc(/C=C2\C(=O)N(c3ccccc3)C(c3ccccc3)S2(=O)=O)cc1` (centres unmarked) is higher in “% Inhibition @ 10 uM” value: -6.98% for the first, 2.38% for the second.

Compared with `CCOc1ccc(C(=O)N(Cc2ccc(C)o2)C2CCS(=O)(=O)C2)cc1` (centres unmarked), `CCOc1ccc(-c2nc(S)c3c(n2)Oc2cc(O)ccc2C3)cc1` is lower in “% Inhibition @ 10 uM” value: 8.19% for the first, -0.883% for the second.

First: Cc1onc(-c2ccccc2Cl)c1C(=O)NCCNC(=O)c1c(-c2ccccc2Cl)noc1C
Second: COC(=O)c1cccc(-c2ccc(/C=C3/NC(=O)N(Cc4ccccc4F)C3=O)o2)c1C
The “% Inhibition @ 10 uM” value of the first is higher: 0.331% for the first, -1.81% for the second.

Going from `CCN1C(=O)C(=CNc2ccc(Cl)cc2C(=O)c2ccccc2)C(=O)N(CC)C1=O` to `CN1C(=O)/C(=C/c2ccc(F)cc2)C(=O)N(c2ccccc2)C1=O`, the “% Inhibition @ 10 uM” value rises from -0.898% to 4.08%.

Going from `CCN1CCN(Cc2ccc(F)c(Br)c2)CC1` to `C=C(C)[C@@H]1CC=C(CN2CCN(c3ccccc3F)CC2)CC1`, the “% Inhibition @ 10 uM” value falls from 2.33% to -2.21%.

First: CCOc1ccc(CCNC(=O)c2ccc3nc(CC)c(CC)nc3c2)cc1OCC
Second: CCN(CC)CCNc1nc(/C=C/c2ccc(Cl)cc2)nc2cc3ccccc3cc12
The “% Inhibition @ 10 uM” value of the first is higher: 3.26% for the first, -6.83% for the second.

Compared with `CCCCN(CC)C(=O)C(C(=O)c1ccc(F)cc1)n1ccccc1=O` (centres unmarked), `CC(C)C[C@H](NC(=O)c1ccc(-c2cccc(O)c2)cc1)C(=O)NCC#N` is higher in “% Inhibition @ 10 uM” value: -6.71% for the first, 19.1% for the second.

Compared with `C/C(=N\O)c1ccc(OCCOc2ccc(C#N)cc2)cc1`, `CCOc1ccc(OCCn2c(SCCOc3ccccc3)nc3c(N)ncnc32)cc1` is higher in “% Inhibition @ 10 uM” value: -8.3% for the first, -4.02% for the second.

First: Cn1c(C(=O)NCCC2=CCCCC2)cc2oc3ccccc3c21
Second: Cc1onc(-c2ccccc2)c1C(=O)NC1CCCCCCC1
The “% Inhibition @ 10 uM” value of the first is higher: -2.17% for the first, -4.18% for the second.

Compared with `CCCC[C@H](NS(=O)(=O)c1ccccc1)C(=O)NCC#N`, `CNC(=O)CCCCCN1C(=O)c2ccccc2C1=O` is higher in “% Inhibition @ 10 uM” value: -3.97% for the first, 2.01% for the second.

First: COc1ccc(OC)c(C(C)NC(=O)c2ccccc2Br)c1 (centres unmarked)
Second: COc1cc2c(cc1OC)C(C)N(C(=S)NCc1ccccc1)CC2 (centres unmarked)
The “% Inhibition @ 10 uM” value of the first is higher: 14.1% for the first, -7.23% for the second.

First: CCn1nc(CC(=O)O)c2ccccc2c1=O
Second: COc1ccccc1[C@H]1SC[C@@H](C(=O)O)N1C(C)=O
The “% Inhibition @ 10 uM” value of the first is lower: -4.71% for the first, 2.09% for the second.

First: COc1ccc(OC)c(C2=NOC(C(=O)N3CCC(C)CC3)C2)c1 (centres unmarked)
Second: CC(C)CC(=O)Nc1ccc(S(=O)(=O)N2CCC(C)CC2)cc1
The “% Inhibition @ 10 uM” value of the first is higher: -2.16% for the first, -3.45% for the second.

First: Nc1n[nH]c(-c2ccccc2Cl)n1
Second: N#C/C(=C(/O)c1ccc(Br)cc1)c1nc2ccccc2s1
The “% Inhibition @ 10 uM” value of the first is lower: 0.166% for the first, 0.983% for the second.

Going from `CCOc1cc(S(=O)(=O)NC2CC(C)(C)NC(C)(C)C2)c(C)cc1C` to `Cc1ccc(NCN2C(=O)C3CCC(C)CC3C2=O)cc1` (centres unmarked), the “% Inhibition @ 10 uM” value falls from -1.36% to -3.9%.

Going from `COc1ccc(-c2[nH]nc3c2C(c2cc(Cl)c(O)c(OC)c2)C(C#N)=C(N)O3)cc1` (centres unmarked) to `COc1cc(C2C(C#N)=C(N)Oc3c2oc(CO)cc3=O)cc(OC)c1OC` (centres unmarked), the “% Inhibition @ 10 uM” value falls from 5.48% to 2.38%.

Going from `CS(=O)(=O)C1=NN2C(=N)/C(=C\c3ccc(-c4ccccc4)o3)C(=O)N=C2S1` to `Cc1cc(-c2noc(-c3ccc(Br)o3)n2)c2ccccc2n1`, the “% Inhibition @ 10 uM” value rises from 5.06% to 32.2%.

Going from `Cc1ccc(O)c(C2=NN3C(C2)c2ccccc2OC3C(C)C)c1` (centres unmarked) to `Cc1cccc(C)c1OCc1nc2c3c4c(sc3ncn2n1)CCCC4`, the “% Inhibition @ 10 uM” value rises from -1.68% to 2.94%.

Compared with `COc1ccc2[nH]c3c(=O)n(CCCCC(=O)N(C)C4CCCCC4)c(=S)[nH]c3c2c1`, `Cc1nn(CC(=O)NCCCN2CCCC2=O)c(=O)c2cc3sccc3n12` is higher in “% Inhibition @ 10 uM” value: -5.76% for the first, 3.4% for the second.

With `O=C1CC(N2CCCCCCC2)C(=O)N1c1ccc(Br)cc1` (centres unmarked) the “% Inhibition @ 10 uM” value was -6.48%.

For `Cc1sc(NC(=O)c2ccc(F)cc2)c(C(=O)O)c1C`, the “% Inhibition @ 10 uM” value was -2.89% and 2.64%.
